Assay results from PubChem BioAssay AID1347165 (National Center for Advancing Translational Sciences (NCATS), 2019).
In all, about 220,000 compounds went through this assay and about 5,700 (2.6%) were called active. Inconclusive means that the source gave no clear call. Such entries were picked first, then a sample of the others. Calls follow the shape of the dose curve; as a rule, active = well fitted inhibition curve with a large enough effect; inconclusive = small, poorly fitted or top-dose-only effect; inactive = no such curve, though single readings can be large or run the other way. Potencies of inconclusive entries are doubtful fits and often do not repeat.

What follows are compounds tested against Lysine-specific demethylase 5B (Homo sapiens) (UniProt Q9UGL1) (assay: Primary screen for KDM5B Histone Demethylases FDH-coupled qHTS). Conditions: FDH-coupled NADH fluorescence (FDH is formaldehyde dehydrogenase); activity change, negative = inhibition: at 57.7 µM (top of the series) unless noted.
Method in brief: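 Here, H3K4me3 peptide (12.5 µM in substrate mix) is demethylated by KDM5BΔAP, 200 nM final, after 10 min compound exposure. Formaldehyde product is coupled through FDH (0.25 U/mL in mix) to NADH fluorescence; 30-min ΔRFU feeds dose-response curves.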
Also: nearly all actives have a fitted effect of over 70% in size.
For activity change, negative = inhibition in this document: 0% is about no effect.
Potency is read from the fitted curve at half-maximal effect; tags tell the direction and shape of the fitted curve.

Sequence of UniProt Q9UGL1 (Q9UGL1 whole entry, looked up): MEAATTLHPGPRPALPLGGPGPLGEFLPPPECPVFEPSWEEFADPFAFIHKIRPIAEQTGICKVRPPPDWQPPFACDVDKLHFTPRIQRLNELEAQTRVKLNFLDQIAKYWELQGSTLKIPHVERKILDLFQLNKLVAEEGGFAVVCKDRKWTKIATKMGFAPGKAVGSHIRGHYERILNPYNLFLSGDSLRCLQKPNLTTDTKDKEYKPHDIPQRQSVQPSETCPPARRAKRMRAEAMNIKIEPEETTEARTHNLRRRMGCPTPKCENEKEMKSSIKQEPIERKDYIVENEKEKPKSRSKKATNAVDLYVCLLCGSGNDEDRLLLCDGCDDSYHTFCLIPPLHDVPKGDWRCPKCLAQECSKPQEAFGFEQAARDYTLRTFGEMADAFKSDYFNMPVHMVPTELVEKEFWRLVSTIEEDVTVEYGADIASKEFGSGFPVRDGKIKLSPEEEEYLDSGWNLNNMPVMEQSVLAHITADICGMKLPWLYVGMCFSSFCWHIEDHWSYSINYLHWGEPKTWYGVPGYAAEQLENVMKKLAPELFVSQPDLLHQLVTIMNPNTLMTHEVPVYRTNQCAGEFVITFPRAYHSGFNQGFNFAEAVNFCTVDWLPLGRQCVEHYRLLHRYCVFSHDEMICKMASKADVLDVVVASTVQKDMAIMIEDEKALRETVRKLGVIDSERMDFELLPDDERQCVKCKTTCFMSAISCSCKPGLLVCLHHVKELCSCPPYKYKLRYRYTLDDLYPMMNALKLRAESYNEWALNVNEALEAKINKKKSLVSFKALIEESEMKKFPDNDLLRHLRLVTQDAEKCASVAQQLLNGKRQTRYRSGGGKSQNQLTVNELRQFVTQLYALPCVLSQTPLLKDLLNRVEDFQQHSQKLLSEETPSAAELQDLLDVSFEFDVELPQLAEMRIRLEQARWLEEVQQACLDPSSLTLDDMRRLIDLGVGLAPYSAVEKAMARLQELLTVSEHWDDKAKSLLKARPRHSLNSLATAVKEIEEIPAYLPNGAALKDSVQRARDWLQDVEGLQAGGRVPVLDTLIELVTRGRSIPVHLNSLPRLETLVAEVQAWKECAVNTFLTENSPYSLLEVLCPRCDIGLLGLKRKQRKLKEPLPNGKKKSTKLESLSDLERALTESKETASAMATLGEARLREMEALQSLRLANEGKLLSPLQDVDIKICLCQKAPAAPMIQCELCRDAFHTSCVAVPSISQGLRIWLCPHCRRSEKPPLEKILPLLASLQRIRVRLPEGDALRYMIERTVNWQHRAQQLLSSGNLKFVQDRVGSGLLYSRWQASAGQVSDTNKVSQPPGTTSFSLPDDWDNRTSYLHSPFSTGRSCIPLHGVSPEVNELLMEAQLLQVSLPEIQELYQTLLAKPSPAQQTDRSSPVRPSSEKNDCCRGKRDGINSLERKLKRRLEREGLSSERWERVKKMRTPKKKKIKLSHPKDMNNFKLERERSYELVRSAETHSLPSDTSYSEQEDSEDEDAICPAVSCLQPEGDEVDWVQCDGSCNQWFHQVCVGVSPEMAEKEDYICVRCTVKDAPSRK

Question: `CC(C)(C)c1ccc(C(CC(=O)O)NC(=O)c2ccc(F)cc2)cc1` (configuration not stated) was tested. Which “activity change, negative = inhibition” value did it give?
Answer: The value was inactive: 22.7%.

Question: How did the “activity change, negative = inhibition” value turn out when `CN(Cc1cccc(C#N)c1)C(=O)C1CCOCC1` was run?
Answer: The value was inactive: 12.3%.

Question: For `Cc1cc(C(=O)NCCCOC(C)C)c2c(C3CCCN3)noc2n1` (configuration not stated), which Potency is on record?
Answer: Its Potency is active: 50.1 µM.

Question: `O=C(CSc1cccc2cccc(Cl)c12)NCc1cccs1` was tested. Which Potency did it give?
Answer: Its Potency is inconclusive: 22.4 µM [inhibitor, partial curve, poor fit].

Question: With `COc1ccc(C2=NN(C(=O)CN3CCc4cc(OC)c(OC)cc4C3)C(c3ccco3)C2)cc1` (configuration not stated) as the compound, how does the “activity change, negative = inhibition” value read?
Answer: The value was inactive: 3.62%.

Question: `CN1C(=O)CC(C(=O)O)C12CCN(CCc1ccccn1)CC2` (configuration not stated) was tested. Which “activity change, negative = inhibition” value did it give?
Answer: The value was inactive: 25.7%.

Question: How did the activity change, negative = inhibition turn out when `COc1cc(S(=O)(=O)NCCc2c(C)[nH]c3ccc(C)cc23)ccc1Br` was run?
Answer: Its activity change, negative = inhibition is inconclusive: -36.7% [inhibitor].

Question: How did the Potency turn out when `COc1cc(F)ccc1-c1cc(-c2c(C)noc2C)cc2c1C(=O)N(C)C2` was run?
Answer: The Potency was active: 31.6 µM.

Question: How did the Potency turn out when `O=C(Nc1cc(F)ccc1Cl)c1cc2n(n1)CC(c1ccc3c(c1)OCO3)OC2` (configuration not stated) was run?
Answer: The Potency was inconclusive: 20 µM [inhibitor, partial curve].

Question: How did the Potency turn out when `O=C(Nc1ccccc1)N[C@H]1[C@H](O)[C@@H](N2CCN(c3ccccc3)CC2)[C@@H]2OC[C@H]1O2` was run?
Answer: Its Potency is inconclusive: 35.5 µM [inhibitor, partial curve, poor fit].

Question: With `COC(=O)c1c(C)[nH]c(-c2ccccc2OC)c1C1C(=O)Nc2c(Cl)cccc21` (configuration not stated) as the compound, how does the Potency read?
Answer: The Potency was inconclusive: 31.6 µM [inhibitor, single point].

Question: `Cc1ccc(NC(=O)Cn2nc(-c3ccco3)ccc2=O)cc1Cl` was tested. Which Potency did it give?
Answer: Its Potency is inconclusive: 28.2 µM [inhibitor, partial curve, poor fit].

Question: For `CS(=O)(=O)c1ccc2c(c1)sc1nc(=O)c(/C=C3/C=CC(=O)C(O)=C3)c(N)n12`, which Potency is on record?
Answer: The Potency was inconclusive: 39.8 µM [inhibitor, single point].

Question: How did the “activity change, negative = inhibition” value turn out when `O=C(CCc1c[nH]c2ccccc12)N1CCC(Oc2ncccc2C(=O)N2CCCCC2)C1` (configuration not stated) was run?
Answer: The value was inactive: -6.76%.

Question: With `COC(=O)COc1cccc2c(=O)n(CC(=O)N3CCC(C)CC3)ccc12` as the compound, how does the Potency read?
Answer: The Potency was inconclusive: 28.2 µM [inhibitor, partial curve, poor fit].

Question: How did the “activity change, negative = inhibition” value turn out when `CC(C)(C)OC(=O)Nc1ccc(CC(=O)N2CCCC2c2ccsc2)cc1` (configuration not stated) was run?
Answer: The value was inactive: 4.93%.

Question: With `Cc1ccc(-c2cnc(CCC(=O)NC(C)C3CC3)o2)cc1C` (configuration not stated) as the compound, how does the “activity change, negative = inhibition” value read?
Answer: Its value is inactive: 9.86%.

Question: Which Potency does the source give for `Cn1cc(CN2CCN(C(=O)c3ccsc3)CC2)ccc1=O` here?
Answer: The Potency was inconclusive: 28.2 µM [inhibitor, partial curve, poor fit].

Question: For `O=C(c1ccc(F)cc1F)N1CCC2(CC1)N=C(c1ccc(Cl)cc1)NO2`, which Potency is on record?
Answer: Its Potency is inconclusive: 22.4 µM [inhibitor, single point].

Question: For `Cc1ccc2c(COC(=O)c3n[nH]c4ccccc34)cc(=O)oc2c1C`, which “activity change, negative = inhibition” value is on record?
Answer: Its value is inactive: 13.5%.

Question: For `COc1ccc(CN2C[C@H]3CN(C4CCOCC4)C[C@@]3(C(=O)O)C2)cc1O`, which Potency is on record?
Answer: Its Potency is inconclusive: 14.1 µM [inhibitor, single point].

Question: With `CCOc1ccccc1NC(=O)Cn1c(=O)c(-c2noc(C)n2)c2n(c1=O)CCCCC2` as the compound, how does the “activity change, negative = inhibition” value read?
Answer: The value was inactive: 2.76%.

Question: With `Cc1ccc(S(=O)(=O)Cc2nc(-c3ccc(C(=O)NCCN4CCOCC4)cc3)oc2C)cc1` as the compound, how does the Potency read?
Answer: The Potency was inconclusive: 25.1 µM [inhibitor, partial curve, poor fit].

Question: For `COc1ccc(COc2ccc3c(C)cc(=O)oc3c2)cc1`, which Potency is on record?
Answer: The Potency was inconclusive: 25.1 µM [inhibitor, single point].

Question: How did the “activity change, negative = inhibition” value turn out when `CC(C)c1ccc(/C=C/C(=O)c2ccc(O)c(CCCl)c2)cc1` was run?
Answer: The value was inactive: -23%.

Question: Which “activity change, negative = inhibition” value does the source give for `N#Cc1cn(CC(=O)Nc2ccc(F)c(F)c2)c2ccccc12` here?
Answer: Its value is inactive: -22.6%.

Question: Which Potency does the source give for `O=C1CCN(C(=O)[C@@H]2CCCN2Cc2ccc(F)cc2F)CCCCCCN1` here?
Answer: The Potency was inconclusive: 35.5 µM [inhibitor, single point].

Question: `COc1cccc(-n2c(SCc3cccc(C)c3)nc3c([nH]c4ccccc43)c2=O)c1` was tested. Which Potency did it give?
Answer: The Potency was inconclusive: 25.1 µM [inhibitor, partial curve, poor fit].

Question: Which Potency does the source give for `O=C(Cn1c(=O)c2c(n1Cc1ccccc1)CN(Cc1ccccc1)CC2)NCc1ccc(F)cc1` here?
Answer: Its Potency is inconclusive: 28.2 µM [inhibitor, single point].

Question: `CN(C)C[C@@H]1CN(c2ccncn2)C[C@H]1NC(=O)CC1CCCCC1` was tested. Which “activity change, negative = inhibition” value did it give?
Answer: The value was inactive: -33.7%.

Question: `COCCNc1ncc(-c2ccc(OC)cc2)c2c1OCC2` was tested. Which Potency did it give?
Answer: The Potency was active: 35.5 µM.

Question: How did the “activity change, negative = inhibition” value turn out when `CCC(=O)N1CCCCCCNC(=O)CC1c1ccccc1` (configuration not stated) was run?
Answer: The value was inactive: -16%.

Question: For `CCOCCN1CCN([C@@H]2c3ccccc3C3(CCNCC3)[C@H]2O)CC1`, which Potency is on record?
Answer: Its Potency is inconclusive: 7.94 µM [inhibitor, partial curve].

Question: For `CC(C)CCNC(=O)c1cnc2sc(N3CCCCCC3)nn2c1=O`, which Potency is on record?
Answer: The Potency was inconclusive: 35.5 µM [inhibitor, partial curve, poor fit].

Question: Which Potency does the source give for `Cn1c(=O)c2c(-c3ccccc3)n(-c3ccc(Cl)cc3)cc2n(C)c1=O` here?
Answer: Its Potency is inconclusive: 2 µM [inhibitor, full curve, poor fit].

Question: How did the Potency turn out when `NC1=NC(=O)/C(=C\c2ccco2)S1` was run?
Answer: The Potency was inconclusive: 25.1 µM [inhibitor, partial curve, poor fit].

Question: `COc1ccccc1-c1noc(CCC(=O)N2CCc3c(nc4cc(-c5ccccc5)[nH]n4c3=O)C2)n1` was tested. Which Potency did it give?
Answer: Its Potency is inconclusive: 25.1 µM [inhibitor, partial curve, poor fit].

Question: Which Potency does the source give for `Cc1cccc(-c2ccc(C=O)cc2)c1` here?
Answer: Its Potency is active: 44.7 µM.

Question: For `COc1ccc(-n2nc3c(N4CCC(C(=O)N5CCC(C)CC5)CC4)nnc(C)c3c2C)cc1`, which Potency is on record?
Answer: Its Potency is inconclusive: 25.1 µM [inhibitor, single point].

Question: For `CC(C)n1ncc2cc(C(=O)Nc3ccc(OCC(F)(F)F)cc3)cnc21`, which Potency is on record?
Answer: Its Potency is inconclusive: 22.4 µM [inhibitor, partial curve, poor fit].

Question: With `COc1ccc(Nc2ncc(C(=O)Nc3cccc(Cl)c3)c3ccccc23)cc1` as the compound, how does the Potency read?
Answer: Its Potency is inconclusive: 35.5 µM [inhibitor, partial curve, poor fit].

Question: How did the “activity change, negative = inhibition” value turn out when `COc1ccccc1/C=C/C=C(/C#N)C(=O)NC(C)c1ccccc1` (configuration not stated) was run?
Answer: The value was inactive: 9.93%.

Question: How did the Potency turn out when `c1ccc2c(c1)CCCC2NCc1cccc2ccccc12` (configuration not stated) was run?
Answer: Its Potency is inconclusive: 39.8 µM [inhibitor, single point].

Question: How did the Potency turn out when `Oc1cc(-c2cccc(Cl)c2)cc2c1OCCN(Cc1noc(C3CC3)n1)C2` was run?
Answer: The Potency was inconclusive: 35.5 µM [inhibitor, single point].

Question: How did the Potency turn out when `Cc1noc2c(-c3cccnc3NCCN(C)C)cc(-c3ccccc3)nc12` was run?
Answer: Its Potency is inconclusive: 39.8 µM [inhibitor, partial curve, poor fit].

Question: How did the “activity change, negative = inhibition” value turn out when `Cc1nccc(-c2ccccc2)c1C(=O)N(C)Cc1csc(C(C)C)n1` was run?
Answer: The value was inactive: 7.44%.

Question: `COc1ccccc1Nc1nc(C)nc(N)c1S(=O)(=O)c1ccccc1` was tested. Which Potency did it give?
Answer: Its Potency is inconclusive: 35.5 µM [inhibitor, partial curve, poor fit].

Question: `Cc1nc2c3cccnc3nn2c(C)c1CCC(=O)NCc1ccccc1` was tested. Which Potency did it give?
Answer: The Potency was inconclusive: 14.1 µM [inhibitor, partial curve, poor fit].

Question: With `Cc1cccc(-c2cc(C(=O)O)c3ccc(C)c(C)c3n2)c1` as the compound, how does the Potency read?
Answer: Its Potency is inconclusive: 28.2 µM [inhibitor, partial curve, poor fit].

Question: With `O=C(Cn1c(-c2cccs2)cc2cc(F)ccc21)NCCc1ccc(Cl)cc1` as the compound, how does the Potency read?
Answer: Its Potency is inconclusive: 25.1 µM [inhibitor, partial curve, poor fit].

Question: Which Potency does the source give for `CCOc1cc(C(=O)N(C)Cc2cc3cc(OC)ccc3[nH]c2=O)cc(OCC)c1OCC` here?
Answer: Its Potency is inconclusive: 22.4 µM [inhibitor, single point].

Question: With `COc1ccc(C2=CC(c3cccc(OC)c3)n3nnnc3N2)cc1` (configuration not stated) as the compound, how does the Potency read?
Answer: Its Potency is inconclusive: 31.6 µM [inhibitor, single point].

Question: For `CC(C)(CNC(=O)NC1CCCC1)C(N)=O`, which “activity change, negative = inhibition” value is on record?
Answer: The value was inactive: 13.3%.

Question: `O=c1cc(CN2CCN(c3ccc(F)cc3)CC2)c2cc(Cl)c(O)cc2o1` was tested. Which Potency did it give?
Answer: The Potency was inconclusive: 28.2 µM [inhibitor, partial curve, poor fit].

Question: `CCN1CCN(CCCNC(=O)Cn2c(-c3cccs3)cc3cc(Cl)ccc32)CC1` was tested. Which Potency did it give?
Answer: Its Potency is inconclusive: 31.6 µM [inhibitor, partial curve, poor fit].

Question: With `COc1ccc(-c2nc(CNC(=O)Nc3ccccc3)c(C)o2)c(OC)c1` as the compound, how does the Potency read?
Answer: The Potency was inconclusive: 35.5 µM [inhibitor, single point].

Question: Which Potency does the source give for `COc1ccc(C(=O)N2CCC3(CC2)N=C(c2ccc(Cl)cc2)NO3)cc1OC` here?
Answer: The Potency was inconclusive: 25.1 µM [inhibitor, single point].

Question: How did the Potency turn out when `O=C(N[C@H](c1ccccn1)C1CC(O)C1)c1cnc2ccccn2c1=O` (some centres not stated) was run?
Answer: Its Potency is active: 25.1 µM.

Question: For `COc1ccc2[nH]cc(CCNC(=O)C3CCN(c4nc(Cl)nc5nc[nH]c45)CC3)c2c1`, which Potency is on record?
Answer: Its Potency is inconclusive: 25.1 µM [inhibitor, partial curve, poor fit].

Question: `CN(CC1(CO)CC1)c1nccc(CCC(F)(F)F)n1` was tested. Which Potency did it give?
Answer: The Potency was inconclusive: 28.2 µM [inhibitor, partial curve, poor fit].

Question: `COc1ccc(CCNC(=S)N2CCC(C(N)=O)CC2)cc1` was tested. Which Potency did it give?
Answer: The Potency was inconclusive: 39.8 µM [inhibitor, partial curve, poor fit].

Question: For `O=C(NCc1nnc2ccc(-c3ccccc3)nn12)c1cccc(C(F)(F)F)c1`, which Potency is on record?
Answer: The Potency was active: 31.6 µM.

Question: For `Cc1nc(-c2ccccc2)sc1-c1ccccc1`, which Potency is on record?
Answer: The Potency was inconclusive: 28.2 µM [inhibitor, partial curve, poor fit].

Question: Which Potency does the source give for `CN(C)Cc1ccc(-c2cc(-c3cn[nH]c3)c3cncn3c2)cc1` here?
Answer: The Potency was active: 39.8 µM.

Question: `COc1ccc(C(=O)Oc2ccccc2Cl)cc1Br` was tested. Which “activity change, negative = inhibition” value did it give?
Answer: The value was inactive: 10.8%.

Question: `COCCNC(=O)CSCc1nc(-c2ccc(OC)c(OC)c2)oc1C` was tested. Which Potency did it give?
Answer: Its Potency is inconclusive: 28.2 µM [inhibitor, single point].

Question: How did the “activity change, negative = inhibition” value turn out when `O=C1NCCCCCN(C(=O)c2ccncc2)[C@H]2CCC[C@@H]12` was run?
Answer: Its value is inactive: 17.6%.
